About 25 (0.007%) of roughly 380,000 compounds were called active. The inconclusive results got no clear call from the source; some entries with a clear call stand among them for comparison. Calls come from the whole dose curve; as a rule, active = well fitted activation curve with a large enough effect; inconclusive = small, poorly fitted or top-dose-only effect; inactive = no such curve, though single readings can be large or run the other way. No potency is given beside an inconclusive call; the fits are too rough.
These compounds were tested against Glucagon-like peptide 1 receptor (Homo sapiens) (UniProt P43220) (assay: qHTS of GLP-1 Receptor Agonists). Conditions: HEK293 GLP-1R CRE-luciferase, luminescence, 4-6 h, cells express a hypersensitive GLP-1R form; activation: at 45.6 µM (top of the series) unless noted.
Potency is the fitted concentration of half-maximal effect; tags give direction and shape of the fitted curve.
Throughout, for activation: % of control where 0% means no effect.

UniProt P43220, sequence (P43220 whole entry, looked up): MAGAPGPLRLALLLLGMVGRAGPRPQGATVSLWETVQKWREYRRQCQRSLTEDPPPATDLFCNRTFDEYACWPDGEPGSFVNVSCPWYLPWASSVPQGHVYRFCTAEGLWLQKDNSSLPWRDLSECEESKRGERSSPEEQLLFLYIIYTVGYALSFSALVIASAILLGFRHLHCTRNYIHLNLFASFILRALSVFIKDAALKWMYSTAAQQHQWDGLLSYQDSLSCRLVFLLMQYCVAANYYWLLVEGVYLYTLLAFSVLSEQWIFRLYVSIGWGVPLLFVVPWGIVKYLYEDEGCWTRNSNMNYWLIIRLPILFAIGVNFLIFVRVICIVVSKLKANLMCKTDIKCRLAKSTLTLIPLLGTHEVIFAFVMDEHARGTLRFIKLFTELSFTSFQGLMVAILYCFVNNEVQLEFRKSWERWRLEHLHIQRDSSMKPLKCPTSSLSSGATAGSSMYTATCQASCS

| SMILES | Potency | activation |
| --- | --- | --- |
| O=C(CCCOc1ccc(Cl)cc1Cl)N/N=C/c1ccccc1 | inconclusive [activator, partial curve] | – |
| O=S(=O)(Cc1ccc(Cl)cc1Cl)c1ccc(Cl)cc1 | inconclusive [activator, single point] | – |
| CCCCN(CCCC)C(=O)CSc1nnc2n(C)c(=O)c3c4c(sc3n12)CCCC4 | – | inactive: 0.827% |
| CC1(C)CC(=O)C=C(c2cccc3c2sc2ccccc23)C1 | inconclusive [activator, partial curve] | – |
| COc1ccccc1-c1cc(NC=O)c2ncc(-c3cccc(C(C)=O)c3)n2c1 | inconclusive [activator, partial curve, poor fit] | – |
| COc1ccc(C2=NOC(COc3ccc4c(C)cc(=O)oc4c3)C2)c(OC)c1 (stereo unspecified) | inconclusive [activator, single point] | – |
| CC(=O)c1cccc(NC(=O)CSc2nc(N3CCCCC3)nc(N3CCCCC3)n2)c1 | inconclusive [activator, single point] | – |
| CCn1c2ccc(OC)cc2c2nc3ccccc3nc21 | inconclusive [activator, partial curve] | – |
| O=C(NCc1nc2ccccc2[nH]1)c1c(F)cccc1F | – | inconclusive: 43.9% [activator] |
| COc1cc2ccccc2cc1C(=O)NC1CCC(C)CC1 (stereo unspecified) | inconclusive [activator, single point] | – |
| CCc1ccc(N=C2NC(=O)/C(=C/c3cc(OC)c(O)c(OC)c3)S2)cc1 | inconclusive [activator, partial curve] | – |
| COC(=O)c1sc2cc(C(F)(F)F)cnc2c1-c1cccnc1 | inconclusive [activator, single point] | – |
| CCOC(=O)c1c(NC2OC(=O)c3c2ccc(OC)c3OC)sc(C(=O)OC(C)(C)C)c1C (stereo unspecified) | inconclusive [activator, single point] | – |
| COc1ccc2c(C)cc(=S)[nH]c2c1 | – | inconclusive: 52.4% [activator] |
| COc1ccc(-c2cc3nc(C4CCN(C(=O)OC(C)(C)C)CC4)c(C(=O)O)cn3n2)cc1 | inconclusive [activator, single point] | – |
| COC(=O)c1ccc2nc(C3CCCCC3)c(CC(C)(C)C)n2c1 | – | inactive: -4.78% |
| Cc1c(C(=O)Nc2ccc3c(c2)OCCO3)oc2ccc(Br)cc12 | inconclusive [activator, partial curve] | – |
| COc1ccc([N+](=O)[O-])cc1NS(=O)(=O)c1cc(C(=O)N2CCN(C)CC2)ccc1OC | inconclusive [activator, full curve, poor fit] | – |
| COCc1cc(C)n(CC(=O)NC(C)c2ccccc2)c(=O)c1C#N (stereo unspecified) | – | inactive: 1.18% |
| C=CCNc1nnnc2c1sc1nc(N3CCOCC3)c3c(c12)CCCC3 | inconclusive [activator, full curve, poor fit] | – |
| COc1ccc(CNc2cccnc2Cl)cc1 | inconclusive [activator, single point] | – |
| CCOC(=O)N1CCC(N2CCCC(C(=O)c3cccc(OC(C)C)c3)C2)CC1 (stereo unspecified) | – | inactive: 12.4% |

| SMILES | Potency | activation |
| --- | --- | --- |
| CCN(C(=O)c1cc2c(C)nc3ccccc3c2o1)c1cc(Cl)ccc1OC | inconclusive [activator, partial curve] | – |
| Cc1ccc2nc(SCC(=O)Nc3ccc(F)cc3F)[nH]c2c1 | inconclusive [activator, single point] | – |
| COc1cc(-c2c(-c3cc(OC)c(OC)c(OC)c3)noc2C)ccc1F | inconclusive [activator, partial curve] | – |
| COc1ccc(C2N(c3ccc4c(c3)OCCO4)C(=O)C2(F)F)cc1OC (stereo unspecified) | inconclusive [activator, partial curve, poor fit] | – |
| COc1ccccc1Nc1ncnc2c1c(C)c(C)n2CCO | inconclusive [activator, single point] | – |
| O=c1ccc2cc3c(-c4ccccc4)coc3cc2o1 | inconclusive [activator, partial curve, poor fit] | – |
| COc1ccc([C@H]2CC(=O)C=C(c3ccc(F)cc3OCc3ccccc3)C2)cc1OC | inconclusive [activator, partial curve, poor fit] | – |
| CCc1ccc(-n2c(=O)c3c4c(sc3n(Cc3ccccc3C#N)c2=O)CCC4)cc1 | – | inactive: -1.63% |
| Cc1nn2c(NCCOCCO)c3c(nc2c1-c1ccccc1)CCCC3 | inconclusive [activator, partial curve, poor fit] | – |
| O=C(NCc1ccccc1)c1cccc(COc2ccc3c(c2)CCC3)c1 | – | inactive: -2.4% |
| COc1ccc(-c2ccc(SCC(=O)NCC3CCCO3)nn2)cc1OC (stereo unspecified) | inconclusive [activator, single point] | – |
| COc1cccc(C(=O)NCC(=O)NNc2ncnc(N)c2[N+](=O)[O-])c1 | inconclusive [activator, partial curve, poor fit] | – |
| CNc1nc2sc3c(c2c(=O)n1C)CC(C)(C)SC3 | inconclusive [activator, partial curve, poor fit] | – |
| Cc1cc(C)n2c(SCCC(C)C)nnc2n1 | inconclusive [activator, single point] | – |
| Cc1cc(C)cc(NC(=O)N2CCCN(c3ncccc3[N+](=O)[O-])CC2)c1 | inconclusive [activator, single point] | – |
| CCOC(=O)C1(COCc2ccccc2)CCCCC1=O (stereo unspecified) | inconclusive [activator, partial curve, poor fit] | – |
| C=CCn1c2ccccc2c(=O)c2cc(C#CC[C@@H](C)O)ccc21 | inconclusive [activator, partial curve] | – |
| CCOC(=O)c1c(-c2ccc(Cl)cc2)csc1NC(=O)CNCc1ccco1 | inconclusive [activator, partial curve, poor fit] | – |
| CN1CC[C@@]2([C@@]34CCN(C)C3Nc3ccccc34)c3ccccc3NC12 (stereo partly specified) | inconclusive [activator, partial curve, poor fit] | – |
| COC(=O)c1ccc(CSc2nnnn2Cc2ccccc2)cc1 | inconclusive [activator, partial curve, poor fit] | – |
| Clc1nc(NCCc2ccccc2)c2cn[nH]c2n1 | inconclusive [activator, partial curve, poor fit] | – |
| O=C(c1cccc(Cl)c1)N1CCCC(c2ccc(Cl)cc2)=N1 | inconclusive [activator, partial curve] | – |

| SMILES | Potency | activation |
| --- | --- | --- |
| Cc1nc(SCc2ccccc2)nc2c1CCC2 | inconclusive [activator, partial curve, poor fit] | – |
| Cc1cc(Cl)c2oc(C(=O)N(C)CCCCN3CCOCC3)c(C)c2c1 | inconclusive [activator, single point] | – |
| COc1ccccc1N=c1oc2cc(O)ccc2cc1C(=O)NCC1CCCO1 (stereo unspecified) | inconclusive [activator, single point] | – |
| COc1cc(/C=C2\SC(=Nc3ccccc3)N(Cc3ccco3)C2=O)ccc1OC(C)C(=O)O (stereo unspecified) | inconclusive [activator, full curve, poor fit] | – |
| Oc1cc(O)cc(/C=C/c2ccc(O)c(O)c2)c1 | – | inactive: 8.22% |
| O=C(NCCN1CCN(C(=O)c2cccs2)CC1)c1cccs1 | – | inactive: -1.39% |
| Cc1c(C=O)c2cc(OCc3ccccc3)ccc2n1C | inconclusive [activator, partial curve, poor fit] | – |
| COc1ccccc1NC(=O)NNC(=O)COc1ccc2ccccc2c1 | – | inactive: -2.47% |
| Cc1ccc(Nc2nc(N)c([N+](=O)[O-])c(NCc3ccco3)n2)cc1 | inconclusive [activator, partial curve, poor fit] | – |
| CN(C)c1nc(N)c([N+](=O)[O-])c(NCC2CCCO2)n1 (stereo unspecified) | inconclusive [activator, partial curve, poor fit] | – |
| COCCNc1nc(Oc2ccc(C(N)=O)cc2)c2sccc2n1 | – | inactive: 3.05% |
| CCCCCn1c(-c2ccco2)nc2nc3ccccc3nc21 | inconclusive [activator, single point] | – |
| Cc1ccc(NC(=O)CN(C)Cc2ccc(F)cc2)c([N+](=O)[O-])c1 | inconclusive [activator, partial curve, poor fit] | – |
| CCOC(=O)c1[nH]c(C)c(C(=O)OCC(=O)Nc2sc3c(c2C#N)CCCCC3)c1C | – | inconclusive: 35.8% [activator] |
| CCOc1ccccc1NC(=O)CCC(=O)Nc1ccc2nc(N3CCN(C)CC3)cc(C)c2c1 | – | inactive: 13.7% |
| Brc1c(CSc2nncn2-c2ccccc2)nc2ncccn12 | – | inactive: -0.72% |
| CCN(CC)S(=O)(=O)c1ccc(C)c(NC(=S)N2CCN(Cc3ccc4c(c3)OCO4)CC2)c1 | – | inactive: 6.38% |
| CCCCN(CCO)c1ncnc2sc(-c3ccccc3)cc12 | inconclusive [activator, partial curve] | – |
| COC(=O)c1c(NC(=O)C2CCCO2)sc2c1CCC2 (stereo unspecified) | inconclusive [activator, partial curve, poor fit] | – |
| CCC(C)Nc1nc(N)c([N+](=O)[O-])c(NCCO)n1 (stereo unspecified) | inconclusive [activator, single point] | – |
| CC(C)(C)c1n[nH]c2c1CCCC2 | – | inconclusive: 44.9% [activator] |
| CN(C)c1c([N+](=O)[O-])cc2[nH]c(=O)[nH]c2c1[N+](=O)[O-] | – | inactive: 19.3% |

— PubChem BioAssay AID624172 (National Center for Advancing Translational Sciences (NCATS), 2012)
